# Assay results: PubChem BioAssay AID2101 (National Center for Advancing Translational Sciences (NCATS), 2009)
# In all, about 330,000 compounds went through this assay and about 300 (0.091%) were called active. Inconclusive means that the source gave no clear call. Such entries were picked first, then a sample of the others. Calls come from the whole dose curve; as a rule, active = well fitted inhibition curve with a large enough effect; inconclusive = small, poorly fitted or top-dose-only effect, or effect the other way, or another doubt; inactive = no such curve, though single readings can be large or run the other way. No potency is given beside an inconclusive call; the fits are too rough.
# Target: Lysosomal acid glucosylceramidase (Homo sapiens) (UniProt P04062)
# Experiment: qHTS Assay for Inhibitors and Activators of N370S glucocerebrosidase as a Potential Chaperone Treatment of Gaucher Disease;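 for activity change, negative = inhibition: 0% = full enzyme activity and -100% = no enzyme basal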
# Conditions: N370S GC spleen homogenate, 4MU-glucoside fluorescence; activity change, negative = inhibition: at 59.4 µM (top of the series) unless noted
# Potency is the fitted concentration of half-maximal effect.
Structure (SMILES),Potency,"activity change, negative = inhibition"
CCOc1ccc(N(CC(=O)Nc2ccccc2)S(C)(=O)=O)cc1,inactive,
OC[C@@H]1[C@@H](c2ccc(Cl)cc2)C(c2cccc(Cl)c2)=NN1c1ccccc1,"inconclusive [activator, partial curve]",
C[C@@H]1C(=O)O[C@H]2[C@H](O)[C@@]34[C@H]5CC(C(C)(C)C)[C@]36[C@H](OC(=O)[C@H]6O)O[C@]4(C(=O)O5)[C@@]12O (stereo partly drawn),"inconclusive [inhibitor, partial curve]",
COCCNC(=O)Cn1cc(/C=C(\C#N)C(=O)NC2CCCC2)c2ccccc21,"inconclusive [inhibitor, full curve, poor fit]",
CC(=O)c1cccc(NC(=O)c2ccc3c(c2)CCN3S(=O)(=O)c2ccccc2)c1,inactive,
O=C(COc1ccccc1F)NC12CC3CC(CC(C3)C1)C2,"inconclusive [activator, partial curve]",
Cc1ccc(S(=O)(=O)N/N=C2/CC(=O)CC(C)(C)C2)cc1[N+](=O)[O-],inactive,
CCCc1cc(NCCCO)n2c(nc3ccccc32)c1C#N,"inconclusive [activator, single point]",
COc1ccccc1CNc1ncnc2ccc(-c3ccccc3CN(C)C)cc12,"inconclusive [inhibitor, partial curve]",
CN(C)CCCNc1oc(/C=C/c2ccccc2)nc1C#N,"inconclusive [activator, partial curve]",
c1ccc(-c2nnn(C34CC5CC(CC(C5)C3)C4)n2)cc1,"inconclusive [activator, partial curve]",
CCN1CCN(C(=O)c2cc3c(=O)n4ccccc4nc3s2)CC1,"inconclusive [activator, partial curve]",
CN1CCN(CC(=O)Nc2ccccc2Sc2ccccc2)CC1,"inconclusive [inhibitor, single point]",
CC(Sc1nc2ccccc2s1)C(=O)Nc1nnc(C(C)C)s1 (stereo not drawn),"inconclusive [activator, single point]",
O=C(Nc1cccc(Cl)c1)Nc1ccccc1NS(=O)(=O)c1cccs1,"inconclusive [activator, single point]",
Nc1cccc(C(=O)OCC(=O)c2ccccc2)c1,inactive,
CC1(C)C(C=C(Cl)Cl)C1C(=O)N/N=C/c1ccccc1F (stereo not drawn),"inconclusive [activator, partial curve]",
O=C(O)CCC(=O)NN1C(=O)c2ccccc2NC1c1ccco1 (stereo not drawn),inactive,
CC(C)[C@@H]1NC(=O)c2cc([N+](=O)[O-])cc(I)c2OCC[C@@H](C(N)=O)NC(=O)[C@H](CCC(=O)O)NC1=O,"inconclusive [inhibitor, single point]",
COc1ccc(S(=O)(=O)Nc2ccc(O)c(Sc3nc4ccccc4s3)c2)cc1,"inconclusive [activator, partial curve]",
OCc1ccc(-c2ccc(-c3ccc(CO)s3)o2)s1,"inconclusive [activator, single point]",
CCC(C)Nc1cc(C)c(C#N)c2nc3ccccc3n12 (stereo not drawn),"inconclusive [activator, partial curve]",
CCOc1cccc2oc(-c3ccccc3Cl)cc(=O)c12,"inconclusive [activator, single point]",

Structure (SMILES),Potency,"activity change, negative = inhibition"
Cc1ccc(S(=O)(=O)N(CC(=O)N2CCC(C)CC2)Cc2ccccc2F)cc1,"inconclusive [activator, partial curve]",
CC1=C(C#N)C(c2ccc(O)cc2)C2=C(CC(C)(C)CC2=O)N1 (stereo not drawn),inactive,
COc1ccccc1C(=O)COC(=O)COc1cccc2c1OC(C)(C)C2,"inconclusive [activator, single point]",
O=C1c2cnc3ncnn3c2CC2c3ccccc3CCN12 (stereo not drawn),"inconclusive [activator, partial curve, poor fit]",
O=C(CSc1nnc(-c2ccc(O)cc2)o1)Nc1ccccc1,"inconclusive [activator, single point]",
O=C(CSc1nc2ccccc2c(=O)n1-c1ccccc1F)Nc1ccc2c(c1)CCC2,"inconclusive [activator, full curve]",
CCC(C)NCCOCCOc1ccc(Cl)c2ccccc12 (stereo not drawn),"inconclusive [inhibitor, single point]",
CN1CCN(c2nc(-c3cccs3)nc3ccccc23)CC1,inactive,
CC(C)CCn1c(=O)c2ccccc2n2c(CN(C)Cc3ccccc3)nnc12,"inconclusive [activator, partial curve]",
COc1cccc(-n2c(SCC(=O)Nc3ccc4c(c3)CCC4)nc3ccccc3c2=O)c1,"inconclusive [activator, full curve, poor fit]",
O=C1[C@H]2[C@H]3[C@H](O)[C@H](O)C/C(=N/OC[C@@H](O)COCc4ccco4)[C@H]3CC[C@@H]2C(=O)N1c1cccc(Oc2ccccc2)c1,,inactive: 5.71% [at 12.8 µM]
COc1ccc(-c2nc3ccccc3n2Cc2ccccc2)cc1,inactive,
C=CC[C@@H]1C=C[C@@H](O/N=C\[C@@H](OC)[C@H](C)/C=C\CC(=O)OC)[C@@H](CO)O1,,inactive: 5.28% [at 12.8 µM]
OC(COC(c1ccc(F)cc1)c1ccc(F)cc1)CN1CCc2ccccc2C1 (stereo not drawn),"inconclusive [inhibitor, partial curve]",
Clc1ccccc1C1=CC(c2ccco2)n2nnnc2N1 (stereo not drawn),"inconclusive [inhibitor, partial curve]",
CC(C)c1ccc(/C=N/Nc2cc(N3CCOCC3)nc(N3CCOCC3)n2)cc1,inactive,
c1nc(N2CCCCC2)c2[nH]cnc2n1,"inconclusive [inhibitor, single point]",
C1=C(c2ccccc2)CCN(c2nc3ccccc3n3cnnc23)C1,inactive,
NC(C(=O)O)c1cccc(O)c1 (stereo not drawn),inactive,
COC(=O)[C@H](CCCN=C(N)N)NC(=O)CCCc1c(-c2ccccc2)[nH]c2c(F)cc(F)cc12,"inconclusive [inhibitor, partial curve]",
CC(C)c1ccc(/C=C(\NC(=O)c2ccccc2)C(=O)NCCN2CCOCC2)cc1,"inconclusive [inhibitor, single point]",
CCN1CCN(CC(=O)Nc2c(OC)cccc2OC)CC1,inactive,
CC(C)Oc1cccc(C(=O)C2CCCN(C(=O)c3noc4c3CCCC4)C2)c1 (stereo not drawn),"inconclusive [activator, partial curve]",

Structure (SMILES),Potency,"activity change, negative = inhibition"
CC(=O)c1cc2c(cc1NC(=O)CSc1nnc(C)s1)OCO2,"inconclusive [activator, partial curve]",
Cc1ccc(C)c(NC(=O)CSc2nc3nc(-c4cccs4)cc(C(F)(F)F)c3c(=O)[nH]2)c1,"inconclusive [activator, full curve]",
O=C(C[n+]1cc(-c2ccc(F)cc2)n2c1CCC2)c1cccs1,inactive,
CC(N=Cc1cccc(O)c1O)c1ccccc1 (stereo not drawn),inactive,
CCOC(=O)CCc1nn(C)c(=O)c2ccccc12,"inconclusive [inhibitor, single point]",
COc1cccc(C(=O)Nc2cc3c(cc2N2CCOCC2)n(C)c(=O)n3C)c1,"inconclusive [activator, single point]",
COc1ccc(C(CCN2CCCC2)c2c(OC)cc(OC)c3c(-c4ccccc4)cc(=O)oc23)cc1 (stereo not drawn),"inconclusive [inhibitor, partial curve]",
COc1cc(OC)cc(C(=O)NCCCN2CCOCC2)c1,inactive,
Clc1ccccc1OCCN1CCCCC1,inactive,
C=CCc1ccc(O)c(-c2ccc(O)c(CC=C)c2)c1,inactive,
O=c1c2ccccc2nnn1-c1ccc(Br)cc1,inactive,
Cc1cccc(NS(=O)(=O)c2cccc(C(=O)NCC(C)(C)N3CCOCC3)c2)c1,"inconclusive [inhibitor, partial curve]",
Nc1ccc(O)c2c1C(=O)c1ccccc1C2=O,inactive,
COc1ccc(OC)c(C2c3[nH]c4ccccc4c3C[C@H]3C(=O)N(CCCOC(C)C)CC(=O)N23)c1 (stereo partly drawn),"inconclusive [inhibitor, partial curve, poor fit]",
COC(=O)C(CC(=O)c1ccc(Br)cc1)n1nc(C)cc1C (stereo not drawn),inactive,
CSc1ncccc1C(=O)OCC(=O)Nc1cc(C(F)(F)F)ccc1N1CCOCC1,"inconclusive [activator, partial curve]",
Cc1ccc(S(=O)(=O)Nc2cc(=O)[nH]c(SCC(=O)Nc3cccc(C)c3)n2)cc1,"inconclusive [activator, single point]",
COC(=O)Cc1c[nH]c2cccc(OCC(O)CN(Cc3ccc([N+](=O)[O-])cc3)C(C)(C)C)c12 (stereo not drawn),"inconclusive [inhibitor, full curve, poor fit]",
COc1cccc(-c2ccc3ncnc(NC4CC4)c3c2)c1,"inconclusive [inhibitor, partial curve]",
Cc1nn(Cc2ccc(C(=O)NC3CCCCC3)o2)c(C)c1Br,"inconclusive [activator, single point]",
CCN(CC)c1ccc2cc(C(=O)NCc3ccc(F)cc3)c(=N)oc2c1,"inconclusive [activator, full curve]",
O=c1c2ccccc2[nH]c2ccc(F)cc12,"inconclusive [activator, single point]",
